Molecules are shown by their SMILES.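 All cell lines were grown in 96-well plates and treated with compound for 48 hours. Here, GI50 denotes the concentration required for 50% inhibition of growth.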 Calls of active or inactive are those of the source. Cut-off read from the data, not from the text of the source: active = GI50 up to about 1.1 µM and inactive = higher.

This assay has as its system NCI-H322M. As to the kind of experiment: growth of human tumour cells (NCI), 48 h.
`CC(C)c1ccc2nc3ccc(C(=O)NCCN(C)C)cn3c(=O)c2c1`: the GI50 was inactive: 24.8 µM.

`CCC(=O)OCc1ccc2oc(=O)c(C(=O)Oc3cncc(Cl)c3)cc2c1`: the GI50 is inactive: 87.3 µM.

Take `Sc1ccc2ccccc2c1CNCc1ccccc1`: the GI50 is inactive: 20.9 µM.

Turning to `CN(CC(=O)O)Cc1c(O)c(Cl)cc(Cl)c1Cl`, the GI50 was inactive: 10.3 µM.

For the compound `Oc1cccnc1CN1CCCCC1`, the GI50 was inactive: > 100 µM.

Consider `N#C/C(=C\c1ccc(Cl)cc1)c1nc(-c2cc3ccccc3oc2=O)cs1`, for which the GI50 is inactive: 83.4 µM.

On to `CNC/C(Cl)=N/S(=O)(=O)c1ccc(C)cc1`, for which the GI50 is inactive: 30.1 µM.

As for `CC(C)(C)c1ccc2c(c1)C(=O)c1ccccc1C2=O`, the GI50 was inactive: > 100 µM.

Take `CC1CCCC(CC(=O)O)(CC(=O)O)C1` (stereo not drawn): the GI50 is inactive: > 100 µM.

Take `CN1CCN(c2ccncc2S(=O)(=O)N2CCN(C)CC2)CC1`: the GI50 is inactive: > 100 µM.

In the case of `O=C(Cn1ccc(=O)[nH]c1=O)Nc1ccc(C(=O)O)c(O)c1`, the GI50 was inactive: > 100 µM.

`CN(CCO)Cc1ncccc1O`: the GI50 is inactive: > 100 µM.

As to `N=C(N)/N=C(\N)Nc1ccc(C(=O)O)cc1`, the GI50 is inactive: > 100 µM.

Consider `OC[C@@H](O)[C@H](O)[C@H](O)[C@@H](O)C1SCCCS1`, for which the GI50 is inactive: > 100 µM.

`CC1=C(C(=O)Nc2ccccc2C)C(/C=C/c2ccccc2)C(C(=O)Nc2ccccc2C)=C(C)N1`: the GI50 is inactive: > 100 µM.

In the case of `O=c1[nH]c2ccccc2c(=O)c2cc3ccccc3cc12`, the GI50 is inactive: 26.4 µM.

For `CCC1NCC(=O)c2c1[nH]c1ccccc21` (stereo not drawn), the GI50 was inactive: > 100 µM.

Turning to `CN1C(c2ccccc2)CC(C)(O)CC1c1ccccc1` (stereo not drawn), the GI50 is inactive: > 100 µM.

Turning to `O=C1c2cc3c(cc2CC12Cc1cc4c(cc1C2=O)CCCC4)CCCC3`, the GI50 was inactive: > 100 µM.

As to `NC(=S)N/N=C\c1nccc2ccccc12`, the GI50 was active: 0.404 µM.

In the case of `CCN(CC)CCNC(=O)c1nn(C)c(=S)[nH]c1=S`, the GI50 was inactive: > 100 µM.

Consider `O=c1c(-c2ccccc2)c(SCCN2CCOCC2)n(-c2ccccc2)c(=S)n1-c1ccccc1`, for which the GI50 is inactive: > 100 µM.

For `O=c1cnn(C2OC(CO)C(O)C(F)C2O)c(=O)[nH]1` (stereo not drawn), the GI50 is inactive: > 100 µM.

With `Clc1cc(Cl)c2c(Cl)cc(Cl)c3c2c1N=S=N3`, the GI50 is inactive: 86.3 µM.

Turning to `Nc1nc(CCC(=O)Nc2cccc(C(F)(F)F)c2)cc(-c2cccc3ccccc23)n1`, the GI50 was inactive: > 100 µM.

For the compound `c1ccc(N2CCN(CCCN3CCc4c([nH]c5ccccc45)C3c3cccnc3)CC2)cc1` (stereo not drawn), the GI50 is inactive: 75.3 µM.

`C=CCC1(O)c2cccc(O)c2C(=O)c2c(O)cccc21`: the GI50 was inactive: 50.4 µM.

As to `COC(=O)C1(C(=O)OC)N=C(C)OC1c1ccccn1` (stereo not drawn), the GI50 was inactive: > 100 µM.

For `Cc1c(C)c2c(c(N)c1C#N)C(=O)N(NC(=O)c1ccccc1)C2=O`, the GI50 is inactive: > 100 µM.

Turning to `Cc1ccccc1NC(=O)C(=O)Cc1nc2ccccc2s1`, the GI50 is inactive: > 100 µM.

`O=C(c1ccccc1F)c1c(NCc2ccccc2)c(=O)c1=O`: the GI50 was inactive: > 100 µM.

`Cc1n(CC(C)C)c2c([n+]1C)C(=O)c1ccccc1C2=O`: the GI50 was active: 0.237 µM.

On to `COc1ccc2c(=O)c(-c3cc4c(cc3OC)OCO4)coc2c1`, for which the GI50 was inactive: > 100 µM.

Turning to `COC(=O)c1ccccc1N1C(=O)Cc2ccccc2C1=O`, the GI50 was inactive: > 100 µM.

With `COC(=O)/C=C/COCC1C2CCC(=O)C21` (stereo not drawn), the GI50 is inactive: > 100 µM.

As for `O=C(Nc1nc(C23CC4CC(CC(C4)C2)C3)cs1)c1cc2cc(Br)cc(Br)c2oc1=O`, the GI50 is inactive: > 100 µM.

Consider `CN(C)Cc1cc(/N=N/c2ccc(Cl)cc2)ccc1O`, for which the GI50 was inactive: 19.1 µM.

On to `CCOC(=O)/C(C(=O)c1ccccc1)=C1\N[C@H](C(=O)OCC)CS1`, for which the GI50 was inactive: > 100 µM.

`CC1=CC2=C(C=O)C(=O)[C@](C)(O)[C@@H](O)C2=CO1`: the GI50 was inactive: 41.9 µM.

For the compound `COc1ccc(C(=O)N2CCN(c3ccc4c(c3)OCC(=O)N4)CC2)cc1`, the GI50 was inactive: > 100 µM.

For `O=S(=O)(Nc1ccc2ccc3cccc4ccc1c2c34)c1ccccc1`, the GI50 is inactive: > 100 µM.

Consider `NNC(=O)C(=O)N/N=C(\CCCC(=O)Nc1ccc(Cl)cc1)CC(=O)c1ccc(F)cc1`, for which the GI50 was inactive: > 100 µM.

Regarding `C=CCO/N=C(\OC(=O)c1ccc([N+](=O)[O-])cc1)c1ccccc1`, the GI50 is inactive: > 100 µM.

As to `CCNC(=O)Cc1nc2c(O)ncnc2n1C1OC(CO)C(O)C1O` (stereo not drawn), the GI50 was inactive: > 100 µM.

In the case of `COC(=O)[C@]12CC[C@H]3CN(C(=O)OCc4ccccc4)[C@H]([C@H]31)[C@H](c1ccccc1)N2`, the GI50 was inactive: > 100 µM.

`NC(=O)c1ncn(C2CCC(CP(=O)(O)O)C2)c1N` (stereo not drawn): the GI50 was inactive: > 100 µM.

As for `Cc1ccc(Cl)c2c(=O)c3ccc([N+](=O)[O-])cc3sc12`, the GI50 was inactive: > 100 µM.

Take `Cc1nc2ccccc2n1CCc1nc2ccccc2[nH]1`: the GI50 was inactive: > 100 µM.

With `Cn1c2ccccc2c(=NNc2cccc(C(=O)O)c2)c2ccccc21`, the GI50 is inactive: 16.1 µM.

For the compound `CC1CCN(C(C)C)P(=S)(Cc2ccccc2)O1` (stereo not drawn), the GI50 is inactive: > 100 µM.

For the compound `CC1Nc2ccccc2NC1C=C(C#N)C#N` (stereo not drawn), the GI50 is inactive: 16.7 µM.

Take `CO[C@@](c1ccccc1)(c1nc(C#N)c(N)o1)C(F)(F)F`: the GI50 is inactive: > 100 µM.

`CC(C)CC(NC(=O)C(Cc1ccccc1)NC(=O)[C@H]1CC[C@H](NC(=O)C(Cc2ccc(OC(C)(C)C)cc2)NC(=O)OC(C)(C)C)C1)C(N)=O` (stereo partly drawn): the GI50 is inactive: 40.6 µM.

As to `Cc1nc2cn3c(c2c(=O)[nH]1)CCCCC3`, the GI50 is inactive: > 100 µM.

In the case of `COc1ccc(-c2c3c(n(C4OC(CO)C(O)C(O)C4O)c(=S)c2C#N)CCC3)cc1` (stereo not drawn), the GI50 was inactive: > 100 µM.

As to `C1CSC2=C(S1)SC1=C(S2)SC(=C2SC3=C(SC4=C(SCCS4)S3)S2)S1`, the GI50 was inactive: > 100 µM.

As to `CSC(CC(=O)O)C(=O)O` (stereo not drawn), the GI50 was inactive: > 100 µM.

For `Cc1coc2c1CC1OC1(C)CCC1OC1(C)C2` (stereo not drawn), the GI50 is inactive: > 100 µM.

With `CCOC(=O)CCC(NC(=O)c1ccc(Oc2nc3ccccc3nc2-c2ccccc2)cc1)C(=O)OCC` (stereo not drawn), the GI50 was inactive: > 85.5 µM.

As for `[O-][S@@+]1c2ccc3ccccc3c2N[C@@H]2[C@H]1[C@H]1C=C[C@@H]2C1`, the GI50 was inactive: > 100 µM.

As for `Cc1ccc(NC(=O)CC2SC(Nc3cccc(Cl)c3C)=NC2=O)cc1` (stereo not drawn), the GI50 is inactive: > 100 µM.

As to `CC1=NNC(=O)C1C1CC(c2c[nH]c3ccccc23)=NNC1=S` (stereo not drawn), the GI50 was inactive: > 100 µM.

Turning to `O=C(CN1CCN(c2cccc(Cl)c2)CC1)N1CCc2c([nH]c3ccccc23)C1c1cccnc1` (stereo not drawn), the GI50 was inactive: 33.3 µM.

As for `C1CC[C@H]2SSC3CCCC[C@H]3SSC2C1` (stereo partly drawn), the GI50 was inactive: > 100 µM.

For the compound `O=C(CCc1ccccc1)NS(=O)(=O)c1ccccc1`, the GI50 was inactive: > 100 µM.

With `O=C(/C=C\c1ccsc1)c1ccccc1`, the GI50 was inactive: 13.7 µM.

Turning to `COc1cc2c(cc1OC)C(=O)C1(C2)[C@H](c2ccccc2)C2C(=O)c3cc(OC)c(OC)cc3C2[C@H]1c1ccccc1` (stereo partly drawn), the GI50 is inactive: > 100 µM.

Take `CC(C)[Si](OC1=C(C(=O)N(C)c2ccccc2Cl)CCC1)(C(C)C)C(C)C`: the GI50 is inactive: 16.4 µM.

On to `CCOC(=O)c1nc2ccc(C(F)(F)F)cc2nc1Nc1ccc(OC)c(OC)c1`, for which the GI50 is inactive: > 100 µM.

On to `Cc1c(Cl)c(C)c(Cl)c(O)c1Cl`, for which the GI50 was inactive: 50.6 µM.

Regarding `O=[N+]([O-])c1ccc(C2ON=C(c3ccccc3)N2C23CC4CC(CC(C4)C2)C3)cc1` (stereo not drawn), the GI50 was inactive: > 10 µM.

Turning to `CC1(C)[C@H]2CC[C@]1(C)[C@H](OC(=O)NNC(=O)O[C@@H]1C[C@@H]3CC[C@@]1(C)C3(C)C)C2`, the GI50 was inactive: 17.3 µM.

Take `CC1C(=O)N(c2ccccc2)NC12CCCc1ccccc12` (stereo not drawn): the GI50 was inactive: > 100 µM.

For the compound `N#Cc1sc2c(c1OC(=O)c1ccco1)c(=O)n(-c1ccccc1)c(=S)n2-c1ccccc1`, the GI50 is inactive: 97.5 µM.

On to `CC(=O)OCC1OC(n2nc(Cc3ccccc3)c(=S)[nH]c2=S)C(OC(C)=O)C(OC(C)=O)C1OC(C)=O` (stereo not drawn), for which the GI50 is inactive: 28.8 µM.

With `CSc1nc2c(N)ncnc2n1C`, the GI50 is inactive: > 100 µM.

For `COC(=O)C1OC(SCCN)C(O)C(O)C1O` (stereo not drawn), the GI50 was inactive: > 100 µM.

Consider `COc1ccc2c(c1)Cc1c-2[nH]c2cc3c(cc2c1=O)OCO3`, for which the GI50 is inactive: 25.6 µM.

For the compound `COCN1CCN=c2c1c1c3c(c4ccccc4n23)CCC1`, the GI50 was inactive: > 100 µM.

For the compound `CCCCCCCCCCCCCCCCCC(CCCCCCCCCCCCCCCCC)OP(=O)(O)O`, the GI50 is inactive: > 100 µM.

As to `O=[As]O`, the GI50 was inactive: > 100 µM.

`CCCCCCCCCCCCCC/C(C(=O)O)=C(\C)C(=O)O`: the GI50 was inactive: > 100 µM.

For the compound `CC(=O)OC1[C@H]2c3cc4c(cc3CN3CCC(C[C@@H]1OC(C)=O)C23)OCO4` (stereo partly drawn), the GI50 is inactive: > 75 µM.

For the compound `CC(=O)O[C@H]1C=CC(=O)C(C)CC1C` (stereo partly drawn), the GI50 was inactive: > 100 µM.

With `COc1cccc2c1C(=O)c1c(O)c3c(c(O)c1C2=O)CC(O)(C(O)CO)CC3OC1CC(N2CCOCC2)C(O)C(C)O1` (stereo not drawn), the GI50 is active: 0.00269 µM.

For the compound `O=C(NO)c1ccc(O)c(O)c1`, the GI50 was inactive: > 100 µM.

Turning to `Clc1ccc2c(NCCNc3ccnc4cc(Cl)ccc34)ccnc2c1`, the GI50 was inactive: 15.3 µM.

Turning to `CCc1ccc(/C=C\c2cc(OC)c(OC)c(OC)c2)cc1`, the GI50 was active: 0.118 µM.

These data come from ChEMBL document CHEMBL1201862, “PubChem BioAssay data set” (2004).
